{"source": "PubChem BioAssay AID445", "about": "(National Center for Advancing Translational Sciences (NCATS), 2006)", "note": "Screen size: about 110,000 compounds; about 40 (0.04%) were called active. Inconclusive results, whose numbers are uncertain, are shown with a selection of clear calls. Calls come from the whole dose curve; as a rule, active = well fitted curve in the direction sought with a large enough effect in the signal ratio (not every such curve was filed as active); inconclusive = small, poorly fitted or top-dose-only effect, or a change in a side signal; inactive = flat fitted curve, though single readings scatter; the % refers to the signal ratio. Where the call is inconclusive, the potency comes from a doubtful curve fit. Potency is the fitted concentration of half-maximal effect.", "data": [{"test": "IkB Signaling;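 for IkBa stabilization activation: 0% = basal untreated cells and 100% = reference inhibitor full response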", "conditions": "ABC-DLBCL IkBa-CBG/CBR dual luciferase ratio (green luciferase fused to IkBa over red control in OCI-Ly3 lymphoma cells), 4 h; IkBa stabilization activation: at 57.1 µM (top of the series), scaled: untreated 0%, proteasome inhibitor 100% unless noted", "method_in_brief": "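Curves were fitted separately to fusion (green), unfused (red) and ratio luminescence, then classed by r2, magnitude and activity. Cells: OCI-Ly3, 4 h compound plus doxycycline at 37C; 10 uM MG-132 defined full response.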", "values": [{"smiles": "CCc1ccc(NC(=O)Cn2c(-c3cncs3)nc3ccccc32)cc1", "IkBa stabilization activation": "inconclusive: -0.447% [signal inhibitor]"}, {"smiles": "CCn1c2ccccc2c2cc(CN3CCN(Cc4ccccc4C)CC3)ccc21", "IkBa stabilization activation": "inconclusive: -4.23% [signal inhibitor]"}, {"smiles": "CCCC(=O)Nc1cc(-c2nn(C)c(=O)c3ccccc23)ccc1OC", "IkBa stabilization activation": "inactive: 7.97%"}, {"smiles": "O=C(c1ccc2c(c1)N(Cc1cccc(Cl)c1)C(=O)c1ccccc1S2)N1CCOCC1", "IkBa stabilization activation": "inconclusive: 3.8% [signal inhibitor]"}, {"smiles": "c1ccc(OCCn2c(COc3ccccc3)nc3ccccc32)cc1", "IkBa stabilization activation": "inconclusive: 9.8% [signal inhibitor]"}, {"smiles": "Cc1ccc(C(=O)COc2cccc(NC(=O)c3ccco3)c2)cc1", "IkBa stabilization activation": "inconclusive: 2.77% [signal inhibitor]"}, {"smiles": "O=C(NCC1CCCO1)C1CCCN(S(=O)(=O)c2cccc3nsnc23)C1", "note": "(centres undefined)", "Potency": "inconclusive: 6.31 µM [rising, single point]"}, {"smiles": "O=C1c2oc3ccccc3c(=O)c2C(c2cccc(Cl)c2)N1c1ccccn1", "note": "(centres undefined)", "IkBa stabilization activation": "inconclusive: 6.33% [signal inhibitor]"}, {"smiles": "C[N+](C)(C)[C@@H](C1=CCCC1=O)c1ccccc1", "IkBa stabilization activation": "inactive: 5.27% [at 11.4 µM, scaled: untreated 0%, proteasome inhibitor 100%]"}, {"smiles": "COc1ccc(NC(=O)N(C(C)C)C2CCN(C(C)=O)CC2)c(OC)c1", "IkBa stabilization activation": "inconclusive: -0.453% [signal inhibitor]"}, {"smiles": "Cc1ccc(CCNC(=O)c2cc3cc4cc(C)ccc4nc3s2)cc1", "IkBa stabilization activation": "inconclusive: -1.36% [signal inhibitor]"}, {"smiles": "COc1cccc(N2CCN(C3OC(=O)c4ccccc43)CC2)c1", "note": "(centres undefined)", "IkBa stabilization activation": "inactive: -1.12%"}, {"smiles": "COc1cc(C2=NOC(C(=O)N3CCN(c4ccc(F)cc4)CC3)C2)cc(OC)c1OC", "note": "(centres undefined)", "IkBa stabilization activation": "inconclusive: 0.634% [signal inhibitor]"}, {"smiles": "COc1ccccc1Cn1c(CNS(=O)(=O)c2ccc(CC(C)C)cc2)nc2cccnc21", "IkBa stabilization activation": "inconclusive: 3.26% [signal inhibitor]"}, {"smiles": "CN(C)S(=O)(=O)N1CCC(n2cnc3cccnc32)CC1", "IkBa stabilization activation": "inactive: -0.492%"}, {"smiles": "COc1cccc(N2C(=O)C(CC(=O)Nc3ccc(F)cc3)N(CCC3=CCCCC3)C2=O)c1", "note": "(centres undefined)", "IkBa stabilization activation": "inconclusive: 1.03% [signal inhibitor]"}, {"smiles": "O=C1C2=C(Nc3ccccc3SC2c2ccc(Cl)c(Cl)c2)c2ccccc21", "note": "(centres undefined)", "IkBa stabilization activation": "inconclusive: -1.4% [signal inhibitor]"}, {"smiles": "COC(=O)Cc1c(C)c2cc3c(c(C)c2oc1=O)OCN(CCc1ccc(F)cc1)C3", "IkBa stabilization activation": "inconclusive: -0.485% [signal inhibitor]"}, {"smiles": "Nc1c(C(=O)NCc2ccc3c(c2)OCO3)nnn1CC(=O)Nc1ccc(Br)cc1", "IkBa stabilization activation": "inconclusive: -2.34% [signal inhibitor]"}, {"smiles": "O=c1c(-c2cccs2)nc2cncnc2n1C1CC1", "IkBa stabilization activation": "inactive: 0.133% [at 11.4 µM, scaled: untreated 0%, proteasome inhibitor 100%]"}, {"smiles": "CC(=O)N1CCCc2cc(S(=O)(=O)N3CCCC(C(=O)NCc4ccccc4)C3)ccc21", "note": "(centres undefined)", "IkBa stabilization activation": "inconclusive: 0.267% [signal inhibitor]"}, {"smiles": "Cc1cccc(NC(=O)CSc2cn(CC(=O)N3CCCC3)c3ccccc23)c1C", "IkBa stabilization activation": "inactive: 2.38%"}, {"smiles": "CCc1ccc(-c2cc(C)no2)cc1S(=O)(=O)Nc1ccc(Cl)cn1", "IkBa stabilization activation": "inconclusive: 2.48% [signal inhibitor]"}, {"smiles": "Cc1ccc(Cn2cc(C(=O)c3ccc(C)cc3)c(=O)c3ccc(C)nc32)cc1", "IkBa stabilization activation": "inconclusive: 4.05% [signal inhibitor]"}, {"smiles": "Cn1c(COc2ccc(Cl)cc2)nnc1SCc1ncc(-c2ccccc2)o1", "IkBa stabilization activation": "inconclusive: 5.51% [signal inhibitor]"}, {"smiles": "CCOc1ccc(C(=O)Nc2ccc(C(=O)OCc3cc(=O)n4nc(CC)sc4n3)cc2)cc1", "IkBa stabilization activation": "inactive: -2.13%"}, {"smiles": "COc1ccc(/C=C/C(=O)N2CCC(c3nc4ccccc4o3)CC2)cc1", "Potency": "inconclusive: 1 µM [signal inhibitor, full curve]"}, {"smiles": "CCOc1ccc(N(CC)S(=O)(=O)N2CCCC(C(=O)Nc3ccc(NC(C)=O)cc3)C2)cc1", "note": "(centres undefined)", "IkBa stabilization activation": "inconclusive: 0.689% [signal inhibitor]"}, {"smiles": "CCS(=O)(=O)c1nc(S(=O)(=O)c2ccc(C)cc2)c(NCc2ccc(Cl)cc2)s1", "IkBa stabilization activation": "inactive: 0.738%"}, {"smiles": "COc1cccc(C(=O)Nc2cc(-c3ccccc3)nn2-c2ccccc2)c1", "IkBa stabilization activation": "inconclusive: 2.82% [signal inhibitor]"}, {"smiles": "CC(=O)Oc1ccc(C(c2ccc(OC(C)=O)cc2)c2ccccn2)cc1", "IkBa stabilization activation": "inactive"}, {"smiles": "O=C(COc1ccc2oc3c(c2c1)CCCC3)Nc1ccc(Cl)cc1", "IkBa stabilization activation": "inconclusive: 3.98% [signal inhibitor]"}, {"smiles": "CCOc1ccc(-c2c(C)nn3c(-c4ccccc4)c(C(=O)NCCOC)cnc23)cc1OCC", "IkBa stabilization activation": "inconclusive: 2.36% [signal inhibitor]"}, {"smiles": "O=C(Nc1ccc2c(c1)oc1ccccc12)c1cccnc1", "IkBa stabilization activation": "inconclusive: 2.33% [signal inhibitor]"}, {"smiles": "CC1CCC/C(=C\\Nc2ccccc2C(=O)O)C1=O", "note": "(centres undefined)", "Potency": "inconclusive: 25.1 µM [signal inhibitor, partial curve]"}, {"smiles": "CCN(C(=O)Cn1c(SCC(=O)NCc2ccccc2)nc2ccccc21)c1cccc(C)c1", "IkBa stabilization activation": "inconclusive: 3.86% [signal inhibitor]"}, {"smiles": "COc1ccc(-c2cc3ccc(O)c(CN4CCN(CCO)CC4)c3oc2=O)cc1OC", "IkBa stabilization activation": "inactive: 1.41%"}, {"smiles": "Cc1ccc(-n2nc(C(=O)NCCc3cccc(C)c3)c3c4ccccc4n(C)c3c2=O)cc1", "IkBa stabilization activation": "inconclusive: 2.85% [signal inhibitor]"}, {"smiles": "COc1ccc(OC)c(CNC(=O)c2cc(-c3ccc(Cl)s3)nc3ccccc23)c1", "IkBa stabilization activation": "inconclusive: -4.46% [signal inhibitor]"}, {"smiles": "COc1cc(-c2nc3n(n2)C(c2ccc(F)cc2)C(C(N)=O)=C(C)N3)cc(OC)c1OC", "note": "(centres undefined)", "IkBa stabilization activation": "inconclusive: 11.4% [signal inhibitor]"}, {"smiles": "O=C(Cc1cccs1)N1CCN(c2ccccn2)CC1", "IkBa stabilization activation": "inactive: -1.58%"}, {"smiles": "CCOC(=O)c1c(Nc2nc(C)c(C(=O)NC)s2)sc(C)c1C", "IkBa stabilization activation": "inactive: 0.321%"}, {"smiles": "Cc1cc(C)n(-c2ncc(-c3ccccc3)nn2)n1", "IkBa stabilization activation": "inconclusive: 12.4% [signal inhibitor]"}, {"smiles": "Cc1ccc(N2C(=O)c3oc4cc(C)c(C)cc4c(=O)c3C2c2cccc(O)c2)nc1", "note": "(centres undefined)", "IkBa stabilization activation": "inconclusive: 5.3% [signal inhibitor]"}]}]}
